Screen size: about 310,000 compounds; about 14,000 (4.5%) showed an effect of 50% or more. The effect is printed as a negative number. This is one part of the list.
The compounds below were run against human ether-à-go-go-related gene (hERG) potassium channel (human, UniProt Q12809) (assay: primary screen, population patch clamp on CHO cells stably expressing hERG).
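Further: peak tail current of the secondary pulse compared with the same well before compound.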

Chain of human ether-à-go-go-related gene (hERG) potassium channel (Q12809 whole entry, looked up): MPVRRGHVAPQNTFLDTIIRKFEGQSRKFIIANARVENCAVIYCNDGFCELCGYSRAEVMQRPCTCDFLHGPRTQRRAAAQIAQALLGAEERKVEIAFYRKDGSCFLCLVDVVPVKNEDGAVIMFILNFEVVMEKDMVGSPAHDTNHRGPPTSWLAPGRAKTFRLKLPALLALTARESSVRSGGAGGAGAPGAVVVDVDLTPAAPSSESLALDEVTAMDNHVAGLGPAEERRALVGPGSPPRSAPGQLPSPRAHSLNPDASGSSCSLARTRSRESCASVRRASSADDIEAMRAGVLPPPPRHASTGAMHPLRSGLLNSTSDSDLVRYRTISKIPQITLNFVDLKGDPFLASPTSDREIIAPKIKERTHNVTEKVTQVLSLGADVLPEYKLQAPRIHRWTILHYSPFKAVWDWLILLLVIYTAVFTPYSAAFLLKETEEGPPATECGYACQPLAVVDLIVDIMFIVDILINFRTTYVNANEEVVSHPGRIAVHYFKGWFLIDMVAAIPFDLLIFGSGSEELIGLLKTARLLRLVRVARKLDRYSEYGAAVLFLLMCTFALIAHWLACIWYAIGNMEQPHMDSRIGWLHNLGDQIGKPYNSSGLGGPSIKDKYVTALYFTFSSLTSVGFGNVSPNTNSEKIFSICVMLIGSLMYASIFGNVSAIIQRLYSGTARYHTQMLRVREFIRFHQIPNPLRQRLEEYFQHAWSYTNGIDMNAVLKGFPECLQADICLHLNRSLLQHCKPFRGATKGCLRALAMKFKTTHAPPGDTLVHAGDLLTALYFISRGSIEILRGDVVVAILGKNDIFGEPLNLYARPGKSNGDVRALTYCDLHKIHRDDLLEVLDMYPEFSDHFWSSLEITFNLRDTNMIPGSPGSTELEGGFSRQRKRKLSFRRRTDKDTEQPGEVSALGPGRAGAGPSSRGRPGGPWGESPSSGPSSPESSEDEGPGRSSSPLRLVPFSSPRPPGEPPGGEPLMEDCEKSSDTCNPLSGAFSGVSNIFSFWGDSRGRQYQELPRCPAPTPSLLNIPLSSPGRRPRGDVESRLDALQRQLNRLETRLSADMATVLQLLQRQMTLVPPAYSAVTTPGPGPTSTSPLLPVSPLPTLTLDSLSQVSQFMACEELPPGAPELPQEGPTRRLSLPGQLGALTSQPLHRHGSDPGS

Row | Structure (SMILES) | hERG current change (%, negative = inhibition) at 10uM
1 | CCOC(=O)c1[nH]nc(N)c1NC(=O)c1ccc(Cl)cc1Cl | 1.13%
2 | COCCNC(=S)N1CCC(NC(=O)c2ccco2)CC1 | 15.7%
3 | CCOc1ccc(N/C(C)=C\C(=O)c2ccc3c(c2)OCCO3)cc1 | 1.45%
4 | Cc1ccc(C)c(NC2=NCC(=O)N2C2CCCCC2)c1 | -1.7%
5 | CSC1=C(C#N)C(c2ccccc2C)C(C#N)=C(N)N1 (stereo not drawn) | 2.8%
6 | CCCC1CCC(C(=O)n2nc(N)c3cc4ccc(OC)cc4nc32)CC1 (stereo not drawn) | 10.3%
7 | CCCc1ccc2oc(C(=O)N3CCN(c4cnccn4)CC3)c(C)c2c1 | -46.1%
8 | CCCNC(=O)c1ccc(C)c(NC(=O)C2=C(C)OCCS2)c1 | 3.06%
9 | O=C1NCC(COc2cccc3ccccc23)O1 (stereo not drawn) | 13.3%
10 | Clc1ccc(-c2nnc3sc(-c4ccc(Br)o4)nn23)c(Cl)c1 | 9.33%
11 | Cc1nc(NS(=O)(=O)c2ccccc2)sc1NC(=O)Nc1ccccc1 | 28.6%
12 | Cc1cc(C(=O)Nc2ccc3c(c2)OCCO3)co1 | 7.01%
13 | CC(C)CC(c1nnnn1C1CCCCC1)N1CCN(c2ncccn2)CC1 (stereo not drawn) | -19.5%
14 | Cc1nn(-c2cccc(Cl)c2)nc1C(=O)O | 12%
15 | C=C1CCC[C@]2(C)C[C@H]3OC(=O)C(CN(Cc4ccc(OC)c(OC)c4)CC(C)O)[C@H]3CC12 (stereo partly drawn) | -27.3%
16 | Cc1ccc(OCc2nnc(SCC(=O)N3CCOCC3)n2C)cc1 | 14.6%
17 | Cc1cnc(CNC(=O)CC2C(=O)NCCN2Cc2cccc(F)c2F)cn1 (stereo not drawn) | 10.8%
18 | Cc1cc(CNC(=O)c2cc(COc3c(F)cccc3F)on2)nn1C | 15.7%
19 | COc1ccc(NC(=O)CN(C)C(=O)c2cccc3ccccc23)cc1 | 3.09%

Row | Structure (SMILES) | hERG current change (%, negative = inhibition) at 10uM
20 | Cn1cc(/C=C(\C#N)C(=O)Nc2ncc(Cc3ccc(Cl)cc3)s2)c2ccccc21 | 7.07%
21 | CN1C(=O)c2ccc(NC(=O)CCS(=O)(=O)c3ccccc3)cc2C1=O | -3.01%
22 | CSc1ccccc1NC(=O)CSc1nnc(COc2ccccc2)o1 | -22.9%
23 | CC(=O)Nc1ccc(S(=O)(=O)NCCC(=O)NNC(=O)c2ccccc2O)cc1 | 0.372%
24 | C=CCOc1ccccc1CNc1ccc2c(c1)OCCO2.Cl | -4.5%
25 | CC(C)C(=O)NNC(=O)CSc1ncnc2c1cnn2-c1ccccc1Cl | 9.5%
26 | CCOC(=O)C1CCCN(c2nc3ccccc3nc2C(C#N)C(=O)OC(C)C)C1 (stereo not drawn) | 8.39%
27 | CCCCc1cc(=O)oc2c(C)c(OCC(=O)NCCN3CCOCC3)ccc12 | -82.1%
28 | O=C(O)c1c(C(=O)O)c(-c2ccc(Br)cc2)n2c1CSC2 | 15%
29 | O=C(O)CCN1C(=O)C2C3C=CC(C3)C2C1=O (stereo not drawn) | 14.2%
30 | Cc1ccc(C)c2nc3sc(C(=O)N4CCOCC4)c(N)c3cc12 | 6.64%
31 | O=C(NN1CCOCC1)c1cc(-c2ccc(Cl)c(Cl)c2)nc2ccccc12 | 10.8%
32 | Cc1ccccc1NC(=O)N1CCNC(=O)C1CC(=O)Nc1cc(Cl)ccc1Cl (stereo not drawn) | 9.17%
33 | Cc1ccc(CNS(=O)(=O)c2ccc3c(c2)N(C)CCO3)cc1 | 12.7%
34 | CC(C)(C)OC(=O)NCCCC[C@H](NC(=O)c1nc[nH]c1C(=O)NCc1ccccc1)C(=O)OC(C)(C)C | -1.62%
35 | CCC1CCCCN1Cc1nc(Cc2ccccc2Cl)no1 (stereo not drawn) | -10.4%
36 | COc1ccc(N2CCN(S(=O)(=O)c3cc4c(cc3C)NC(=O)CO4)CC2)cc1 | 8.24%
37 | O=C(CSc1nnc(-c2ccncc2)o1)Oc1ccccc1 | 15.2%
38 | CCOC(=O)N1CCN(c2c(N3CCN(c4ccccc4OC)CC3)c(=O)c2=O)CC1 | -5.67%

Row | Structure (SMILES) | hERG current change (%, negative = inhibition) at 10uM
39 | Cc1nc2ccccn2c1/C(O)=C1\C(=O)C(=O)N(CCN2CCOCC2)C1c1cccs1 (stereo not drawn) | -3.48%
40 | CC(C)CN(C(=O)COC(=O)CSc1ccc([N+](=O)[O-])cc1)C1CCS(=O)(=O)C1 (stereo not drawn) | -48.5%
41 | CC(C)Oc1ccc(C(=O)Nc2ccccc2N2CCCC2)cc1 | -14.8%
42 | COc1ccc(S(=O)(=O)NC2(C(F)(F)F)N=C3SCCN3C2=O)cc1 (stereo not drawn) | 13.8%
43 | CCN(CC)C(=O)c1ccc(NC(=O)c2ccc(N3CCCC3=O)cc2)cc1 | 5.47%
44 | COc1cc2c(C(=O)NCCN(C)C)cn(CC(C)C)c(=O)c2cc1OC | 16%
45 | O=C(CCc1ccccc1)Nc1ccc(NS(=O)(=O)c2ccccc2)cc1 | 8.43%
46 | CCN(CC)C(=O)c1ccccc1NC(=O)c1ccccc1C | 21.8%
47 | Cc1ccc2oc(C(=O)NCc3ccccc3)cc(=O)c2c1 | 11.2%
48 | O=[N+]([O-])c1cc(-n2cnnn2)c(O)c([N+](=O)[O-])c1 | 21%
49 | Cc1cccc(NS(=O)(=O)c2ccc3c(c2)CCC(=O)N3)c1 | 4.67%
50 | CCCCN(C)Cc1c(C)[nH]c2ccc(Cl)cc2c1=O | -55.3%
51 | O=S(=O)(c1ccccc1)[C@@]1(c2ccc(Br)cc2)C[C@@H]2ON=C(c3ccccc3)[C@@H]2C1 | -19.6%
52 | CCOC(=O)C1CCN(C(=O)Cc2cccc3ccccc23)CC1 | -2.43%
53 | Cc1noc(C)c1S(=O)(=O)N1CCCCC1 | 10.1%
54 | CCCOc1ccc(S(=O)(=O)n2cc(F)c(=O)[nH]c2=O)cc1 | 15.4%
55 | COc1ccc(CC(=O)OCC(=O)c2c(N)n(C)c(=O)n(C)c2=O)cc1OC | -8.96%
56 | CCS(=O)(=O)N1CCC(C(=O)NCc2ccc3c(c2)OCO3)CC1 | -5.3%
57 | CCN(CC)CCn1c2ccc(F)cc2c2nc(C)sc21.Cl | -54.3%

Reference: article PMC4336329 (PLoS ONE, 2015)
